In the supplement of paper PMC7826260:
Some of the results follow. The data describe in vitro nicking of single-stranded DNA by Rep domains (3 µM enzyme, 1 h, 37 °C); shown is the middle of each 90-letter strand. Uncut reads are compared with the no-enzyme pool on a log2 scale; strong cutting gives strongly negative numbers. There is no active / inactive call. Counts are relative to all reads; uncut strands gain when others are lost, and binding without cutting may add a little.

system: T1, Rep nickase domain of tomato golden mosaic virus; test: uncleaved DNA left, log2 of reads against the no-enzyme library (log2 ratio); higher = less cleavage (more negative = more Rep cleavage of the k-mer); sequences stand for … in CTCGTCCG…ACCGGAGA
T1 sequence (protein, residues 1-124, tag omitted): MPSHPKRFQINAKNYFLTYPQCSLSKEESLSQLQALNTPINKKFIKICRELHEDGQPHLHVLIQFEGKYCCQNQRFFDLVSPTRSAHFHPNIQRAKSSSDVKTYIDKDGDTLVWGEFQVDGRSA
Experimental: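 A pool of 90-nt single-stranded DNAs with seven random bases just before the constant AC of the nick site (name = the seven bases) was cut by 3 µM recombinant His6-SUMO-tagged Rep nickase domain (300 nM DNA, 50 mM HEPES pH 8.0, 50 mM NaCl, 1 mM MnCl2, 1 h, 37 °C, three replicates). Uncut DNA was amplified and sequenced.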

Sequence | uncleaved DNA left (log2)
CACACGA | -0.0827
CATTGCG | 0.00394
GCGAAAC | 0.112
CACATAA | 0.0544
TTCGCGC | -0.0837
GTCCAGT | 0.0419
CTACTCC | -0.0222
CGCCTTT | -0.215
TCTTGTC | -0.0836
GGTAAGT | 0.0598
GGAACGG | 0.129
CAGCGTA | -0.063
TAGCCAT | 0.0901
GGCCTCG | 0.0395
ACTCATC | 0.00554
GGTCGGT | -0.193
GACACCC | -0.0437
TGCTTAG | 0.0479
CCCAGTA | -0.0183
TGCAACA | -0.000203

Sequence | uncleaved DNA left (log2)
CAACAGC | 0.0539
GGGTACT | -0.105
AGTCTCT | -0.0632
GATATCC | -0.0847
TATAATA | 0.106
TGGCCAC | -0.0467
GTATGCG | 0.000407
TAAGCTG | 0.147
GGGGCGG | 0.12
CTCTTGG | 0.0366
TCCAACT | -0.0482
GGCACAG | 0.0897
CCTTGGT | -0.0556
TTGATCC | -0.153
CACGTAA | 0.0993
CGCTGGC | -0.152
TATACAA | 0.126
GATACCA | 0.0223
CGACAGT | -0.0561
GATTTGC | -0.133
